Experimental data as given in the supplement of paper PMC11417369.
The list shows a part of the results.

system: PF3D7_0420300 AP2 domain 1 (GST-tagged); experiment: gcPBM binding intensity (ln(normalized median fluorescence intensity)); higher = stronger DNA binding
Method in brief: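 In this array assay, P. falciparum DNA-binding domains with a GST tag, expressed in E. coli, were applied for 1 h to primer-extended double-stranded 36-bp intergenic genomic probes and negative controls on an Agilent 4 × 180k array. Bound protein was visualised with Alexa488 anti-GST antibody at 488 nm. Binding intensity is the highest Masliner-normalised natural-log median intensity across replicate spots of either probe orientation.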

Point of comparison: “AATAGGAAAAGAAAAGCACACACATAAATAAATATA [CACACA_site8062]”, “gcPBM binding intensity (ln)” value 10.1. Against it:
- AGGTATCAAAAATATGCATGCAATATTTTATGTAAT [TGCATGCA_site1055] — lower, 9.16
- AAAATATAATATAATGCACACATAAAACAAAAAAAA [CACACA_site8989] — lower, 9.74
- GAATAATATATATATTGTACTTTTTATTTATATTAT [XGTACX_site3180] — lower, 9.26
- AAAAAAAAATTAATATATAAAAGGATATATATATAT [GTGCAC_negctrl_site449] — lower, 9.03
- ATATATATATTTATATGTACGAAATATAAAAAAAAA [XGTACX_site5054] — lower, 9.19
- CTTTTTTTTTTTTTTACACACCCAAATCACATACAT [CACACA_site4051] — lower, 9.42
- CTTATCAAAAAAAAAGCATGCCACAGGCAAAAGGTA [TGCATGCA_site574] — lower, 9.39
- CACCTTATAAATACTGCACACATAAAATATATATTA [CACACA_site8908] — lower, 9.55
- ACATATAAATATATTACACACACACTAAAAAAATAA [CACACA_site6209] — the same, 10.1
- ATATATATATATATATGTACATATATACATATACAT [XGTACX_site2350] — lower, 9.22
- CGCCCACAGATATATACACACATATATAAATAAATA [CACACA_site6877] — lower, 9.37
- TATGCTTTGATGAAGACACACATATAGAAGCGTATT [CACACA_site1925] — lower, 9.18
- AAAACTATTTCTTTCAGTACATATTTGGACTTATAT [XGTACX_site4977] — lower, 9.09
- TATGTTATAAAATATATATTATAATATGTATATATA [XGTACX_negctrl_site233] — lower, 9.01
- TACTTTTATAAAAATTGTACAAAAAAAAAAAAAAAA [XGTACX_site2266] — lower, 8.66
- ATATAAATTTAATACACACCCAAAAAAAAAAAAAAA [CACACA_site3750] — lower, 9.37
- ATAATAAGCAGACACACACACACAAAAAAAAAAAAA [CACACA_site6477] — lower, 9.77
- TAAATAAATACATACACACACATACAGATATATATA [CACACA_site5690] — the same, 10.1
- TTAACATACACTCTAGTGCATATATATAACAAAATA [GTGCAC_site9724] — lower, 8.96
- ATTAAAACACAATATTCACACATGTATATTATATAT [CACACA_site5191] — lower, 9.45
- AATTTAAATCTTCAAAGTACTAAAAAAAAAAATAAT [XGTACX_site8566] — lower, 9.29
- ATCATATTTATATTGGTGCATTATGCATGAAATTTA [GTGCAC_site9571] — lower, 9.1
- AAACGATTAATGTGTACACACATAGTTATAAACATA [CACACA_site7073] — lower, 9.64
- TTACACATGTATTTGGTGCATGTTGTTAACAAAATA — lower, 9.07
- TCAAATTACTAAAATACACACATATTATAGATATAT [CACACA_site7233] — lower, 9.53
- TGTATATATAATAAAACACACATTTTTAATGTGCTC [CACACA_site1437] — lower, 9.22
- GTTTTATAAAAAGGCGCACACATATACATAAATATA [CACACA_site1864] — lower, 9.67
- TAAATACAAAAATGCACACGAAAAGTAATATATATA [CACACA_site6151] — lower, 9.64
- GATAAAGTACTTTATACACACAAATATTTATATATA [CACACA_site3974] — lower, 9.45
- AAAAAGAAAATATATACACACCAAAAAAAAAAAAAA [CACACA_site5698] — lower, 9.46
- TATTTTAACATGTTTTCAAAAATAAAACATATAAAT [CACACA_negctrl_site1598] — lower, 8.94
- AAACATTTACTATATTGTACTTAAGATCTTATCGTA [XGTACX_site3919] — lower, 9.06
- TAATATGACATAAGGGGTACTATATATATATATATT [XGTACX_site386] — lower, 9.31
- GAACTTTACAACCCAACACACAAAAAAGAAAAGAAA [CACACA_site1717] — lower, 9.62
- ATTGGTGTATGTTTATGTACTTATCACAATTATGAA [XGTACX_site7055] — lower, 9.41
- ATATGTTCATTTAAAAGTACTTAATATAACATTTTT [XGTACX_site3332] — lower, 9.11
- TATTCCTATATAAAGACACACATATGTAACTACGAT [CACACA_site4139] — lower, 9.49
- TGTGTTATATATAAAGAAAAAAAAAAAAAATATATA [CACACA_negctrl_site567] — lower, 9.19
- AAAAATTTAATTATTTGTACATAAAATACATTTCTG [XGTACX_site791] — lower, 8.96
- TGTACAAATTATACTTCGAACGAAGGGCATACATAT [XGTACX_negctrl_site37] — lower, 9.43
- TATTTGTGTATTTTTACACACATTAATATATTTATA [CACACA_site7562] — lower, 9.48
- TATATATATATTATATGTACACATTTGTGAATTATT [XGTACX_site5848] — lower, 9.14
- TATAGATAACAAAAGTGTACATGTTGTATACACATG [XGTACX_site3471] — lower, 9.27
- TATATATATAAACACACACACACACCCAAGCGTAGC [CACACA_site4210] — the same, 10.1
- AACAACTATTACTGCACACATTCTTACACTATATAA [CACACA_site654] — lower, 9.75
- TTATAAAATATTTTTTGTACACATAATAGTAAGACT [XGTACX_site933] — lower, 9.12
- CTTATATTTAGACACACACACAATAAAATGAAAAAA [CACACA_site1031] — lower, 9.94
- AACCATGTTAACAACGCATGTATATCTATGGGTTTA [TGCATGCA_site419] — lower, 9.18
- GATTAATACACATTCTTCCGACATAATAAGAAAAAG [GTGCAC_negctrl_site7] — lower, 9.24
- GATTATTTTATAAGTACACACATTTATCTATAATAA [CACACA_site7256] — lower, 9.4
- AATACATGCTTATTTTAACACACAAATGGTAGTAAT [CACACA_site8154] — lower, 9.54
- CACCCACACCAACACACACACATATATAATATATAT [CACACA_site595] — the same, 10.1
- CCATAATATTATAGACGTACGAATATATATAAAAGA [XGTACX_site7295] — lower, 9.4
- TTTTTTAAATGTCATTGTACATAATTCAATATATAA [XGTACX_site5] — lower, 8.84
- AGCTAATATATCTTATATTCATATAAAAAAATATAT [CACACA_negctrl_site1786] — lower, 8.94
- TGACTTTTTTTATGTTGTACTTATTATAAAAAAAAT [XGTACX_site7736] — lower, 9.18
- AATACATCATTAAAATGTACATATATATATACATTA [XGTACX_site132] — lower, 9.16
- ATTATAATAATGTGATGTACATTAATTGTCTTCCTA [XGTACX_site5404] — lower, 9.25
- ATATATATTAATTTTGTGCACAAATGGAAATGTTTG [GTGCAC_site9971] — lower, 9.25
- GAAATAAGGGTTATTTCACACATTGCATGTATTTTC [CACACA_site5752] — lower, 9.41
- AAATACTTAACATTGGTGCATATTTGTAAAATTATT [GTGCAC_site9515] — lower, 9.22
- TTTTTTTTTTTTTTATGTACTAAAAAATGAAAAATA [XGTACX_site6812] — lower, 8.58
- ATGCAATAATAATATTGTACGCATATATTTTTTACT [XGTACX_site3384] — lower, 9.28
- AGAATACAAAATTGCACACATATTGTGAAAATGTTA [CACACA_site4005] — lower, 9.48
- TTTTGGCTTCTAATATTATACAAAATGGTAAGGAAA [TGCATGCA_negctrl_site169] — lower, 8.91
- TTATTTATTTATTGGGTGCACTTGATTTAAATATGC — lower, 9.06
- AAAAAAAAAAAAAAAACACACACATATATATAATAT [CACACA_site9038] — lower, 9.86
- TTTGTCAAATAATATTGTACTAAAAAATTTTGCCTT [XGTACX_site7485] — lower, 9.04
- TATTTGTAATATAACACACACAAAAAAAGACTCGGA [CACACA_site1681] — lower, 9.9
- ATACACACAGCCTAAACATGCATATAGAAAAAAGAA [TGCATGCA_site1028] — lower, 9.59
- TGTTTATACATCAGGTGTACGCAAAATAATTGTATG [XGTACX_site206] — lower, 9.29
- TTTATTTACTATTAAAGTACTAAATCATATAATTAT [XGTACX_site2580] — lower, 9.01
- TATACATATACATATACACACACACCCATAAATAAA [CACACA_site8372] — lower, 9.99
- TTAACACATGCTTGGTCACACACGTATGCATATTTA [CACACA_site2127] — lower, 9.53
- GTGTGATATAATTTTTTTAGAGCTTTATAATATTAT [CACACA_negctrl_site233] — lower, 9.27
- TATGTTGATGATATTACACACCCAATGAGAAAAGGA [CACACA_site7060] — lower, 9.5
- CAACCATTTGTAGGTAAACACACATTATTATTAATA [CACACA_site8842] — lower, 9.34
- GTTAAGCAATATATATGTACTTATGGAATAGAAAAA [XGTACX_site3693] — lower, 9.25
- AAGTTACAGAATATCACACATAAATTATCTGTATAT [CACACA_site5116] — lower, 9.3
- TCAATTAATTATTTTTGTACACAAGAATTACTGAAT [XGTACX_site6401] — lower, 8.96
- TTTTTATTAAGACATGCATGGAAACGCACTATTTTA [TGCATGCA_site999] — lower, 9
- TATATATGCATTAAATGATGTTCCTGTTTTTTAAAA [CACACA_negctrl_site1378] — lower, 9.18
- ATACGAAGTACGTACACACACTTATATGTTACTAAA [CACACA_site7812] — lower, 9.51
- AATAAATAAATATATACACACATATATGTCTACATA [CACACA_site3158] — lower, 9.5
- TTTATATCATTTCTTAAAAAAAAGGAGGTAATAGAC [TGCATGCA_negctrl_site555] — lower, 9.3
- TTGCATTACGAACATACACACAGAATAACTGAAAAC [CACACA_site3025] — lower, 9.75
- TTCGATGAATATACAAGTACATATCCTTACGAACTG [XGTACX_site1650] — lower, 8.94
- TTAGTTTATTGGTACTGTACTTTTTTTTTCTCCATT [XGTACX_site8618] — lower, 9.55
